Some of the results follow.

In this experiment the target is T1, MBP-FoxP1dN (Mus musculus, UniProt P58462 326-579).
T1 sequence: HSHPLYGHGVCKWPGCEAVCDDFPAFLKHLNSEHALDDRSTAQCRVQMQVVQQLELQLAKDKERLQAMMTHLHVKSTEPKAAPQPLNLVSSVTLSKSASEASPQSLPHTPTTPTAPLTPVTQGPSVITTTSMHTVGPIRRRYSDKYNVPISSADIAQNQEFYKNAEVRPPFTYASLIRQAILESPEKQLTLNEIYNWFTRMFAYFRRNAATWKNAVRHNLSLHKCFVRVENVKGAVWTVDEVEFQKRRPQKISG
The experiment is described as follows: PD-seq (MBP pull-down with sequencing); 20 mM Tris-HCl pH 7.5, 100 mM NaCl, 1.5 mM MgCl2, 0.4 uM protein, 0.1 uM dsDNA library, 30 min, room temperature, amylose pull-down; high values mean tight binding. Particulars: protein: recombinant; tags: His6-MBP; chain copies: 2; dsDNA, one strand shown. An outline of the steps:
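Protein and DNA were mixed at 0.4 µM and 0.1 µM and held for 30 min at room temperature in Tris pH 7.5 buffer with NaCl and MgCl2; the protein was a His6-MBP-tagged, N-terminally truncated mouse FoxP3 or FoxP1 fragment from E. coli, and the DNA a Klenow-filled double-stranded degenerate library. Amylose resin captured the complexes, which were washed three times. Binding is read as reads-per-million enrichment of pull-down versus input after Illumina sequencing, with replicates pooled.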
For “GATGATTGTTCTCCCAGCTGATGAATTAGCGAGGTCGAGTAAACAAATTTTCCTAATCTTTCTGTTCAAGCGCCATCTAC”, the binding signal is 0.812 RPM ratio (pull-down/input).

Turning to “GATGATTGTTCTCCCAGCTGATGAATTATGATGATCGAGTAAACAAATTTTCCTAATCTTTCTGTTCAAGCGCCATCTAC”, the binding signal was 1.15 RPM ratio (pull-down/input).

For “GATGATTGTTCTCCCAGCTGATGAATTCGTCGCTTCGAGTAAACAAATTTTCCTAATCTTTCTGTTCAAGCGCCATCTAC”, the binding signal is 0.96 RPM ratio (pull-down/input).

With “GATGATTGTTCTCCCAGCTGATGAATTGGTGAACTCGAGTAAACAAATTTTCCTAATCTTTCTGTTCAAGCGCCATCTAC”, the binding signal is 0.914 RPM ratio (pull-down/input).

For “GATGATTGTTCTCCCAGCTGATGAATTTCGAGGCTCGAGTAAACAAATTTTCCTAATCTTTCTGTTCAAGCGCCATCTAC”, the binding signal is 0.821 RPM ratio (pull-down/input).

For the sequence “GATGATTGTTCTCCCAGCTGATGAATTGACCAGGTCGAGTAAACAAATTTTCCTAATCTTTCTGTTCAAGCGCCATCTAC”, the binding signal is 0.856 RPM ratio (pull-down/input).

“GATGATTGTTCTCCCAGCTGATGAATTTGGCACCTCGAGTAAACAAATTTTCCTAATCTTTCTGTTCAAGCGCCATCTAC”: the binding signal is 0.841 RPM ratio (pull-down/input).

As to “GATGATTGTTCTCCCAGCTGATGAATTTCTACTATCGAGTAAACAAATTTTCCTAATCTTTCTGTTCAAGCGCCATCTAC”, the binding signal is 1.01 RPM ratio (pull-down/input).

For “GATGATTGTTCTCCCAGCTGATGAATTCGTACTGTCGAGTAAACAAATTTTCCTAATCTTTCTGTTCAAGCGCCATCTAC”, the binding signal was 1.01 RPM ratio (pull-down/input).

With “GATGATTGTTCTCCCAGCTGATGAATTCCTCTTGTCGAGTAAACAAATTTTCCTAATCTTTCTGTTCAAGCGCCATCTAC”, the binding signal was 0.791 RPM ratio (pull-down/input).

For the sequence “GATGATTGTTCTCCCAGCTGATGAATTGGAGCTATCGAGTAAACAAATTTTCCTAATCTTTCTGTTCAAGCGCCATCTAC”, the binding signal is 0.836 RPM ratio (pull-down/input).

Regarding “GATGATTGTTCTCCCAGCTGATGAATTCGATATGTCGAGTAAACAAATTTTCCTAATCTTTCTGTTCAAGCGCCATCTAC”, the binding signal is 0.919 RPM ratio (pull-down/input).

As to “GATGATTGTTCTCCCAGCTGATGAATTAAATACCTCGAGTAAACAAATTTTCCTAATCTTTCTGTTCAAGCGCCATCTAC”, the binding signal was 0.999 RPM ratio (pull-down/input).

With “GATGATTGTTCTCCCAGCTGATGAATTGGAACATTCGAGTAAACAAATTTTCCTAATCTTTCTGTTCAAGCGCCATCTAC”, the binding signal was 0.998 RPM ratio (pull-down/input).

For the sequence “GATGATTGTTCTCCCAGCTGATGAATTATAGTTGTCGAGTAAACAAATTTTCCTAATCTTTCTGTTCAAGCGCCATCTAC”, the binding signal was 1.42 RPM ratio (pull-down/input).

Regarding “GATGATTGTTCTCCCAGCTGATGAATTGGATGCGTCGAGTAAACAAATTTTCCTAATCTTTCTGTTCAAGCGCCATCTAC”, the binding signal is 1.29 RPM ratio (pull-down/input).

Turning to “GATGATTGTTCTCCCAGCTGATGAATTGATAAAATCGAGTAAACAAATTTTCCTAATCTTTCTGTTCAAGCGCCATCTAC”, the binding signal was 1.14 RPM ratio (pull-down/input).

Turning to “GATGATTGTTCTCCCAGCTGATGAATTGCGATTCTCGAGTAAACAAATTTTCCTAATCTTTCTGTTCAAGCGCCATCTAC”, the binding signal was 1.1 RPM ratio (pull-down/input).

Take “GATGATTGTTCTCCCAGCTGATGAATTAACAAGGTCGAGTAAACAAATTTTCCTAATCTTTCTGTTCAAGCGCCATCTAC”: the binding signal was 1 RPM ratio (pull-down/input).

In the case of “GATGATTGTTCTCCCAGCTGATGAATTGCCCGTGTCGAGTAAACAAATTTTCCTAATCTTTCTGTTCAAGCGCCATCTAC”, the binding signal was 0.897 RPM ratio (pull-down/input).

Turning to “GATGATTGTTCTCCCAGCTGATGAATTTATACATTCGAGTAAACAAATTTTCCTAATCTTTCTGTTCAAGCGCCATCTAC”, the binding signal is 1.26 RPM ratio (pull-down/input).

Turning to “GATGATTGTTCTCCCAGCTGATGAATTGAGGGTGTCGAGTAAACAAATTTTCCTAATCTTTCTGTTCAAGCGCCATCTAC”, the binding signal is 0.852 RPM ratio (pull-down/input).

“GATGATTGTTCTCCCAGCTGATGAATTTAAAATTTCGAGTAAACAAATTTTCCTAATCTTTCTGTTCAAGCGCCATCTAC”: the binding signal is 0.973 RPM ratio (pull-down/input).

In the case of “GATGATTGTTCTCCCAGCTGATGAATTAGGGCGATCGAGTAAACAAATTTTCCTAATCTTTCTGTTCAAGCGCCATCTAC”, the binding signal is 0.834 RPM ratio (pull-down/input).

Regarding “GATGATTGTTCTCCCAGCTGATGAATTTTTTAGCTCGAGTAAACAAATTTTCCTAATCTTTCTGTTCAAGCGCCATCTAC”, the binding signal was 0.853 RPM ratio (pull-down/input).

Turning to “GATGATTGTTCTCCCAGCTGATGAATTAAAGATCTCGAGTAAACAAATTTTCCTAATCTTTCTGTTCAAGCGCCATCTAC”, the binding signal was 0.81 RPM ratio (pull-down/input).

Turning to “GATGATTGTTCTCCCAGCTGATGAATTTCAAGACTCGAGTAAACAAATTTTCCTAATCTTTCTGTTCAAGCGCCATCTAC”, the binding signal was 0.724 RPM ratio (pull-down/input).

Regarding “GATGATTGTTCTCCCAGCTGATGAATTTCCAACATCGAGTAAACAAATTTTCCTAATCTTTCTGTTCAAGCGCCATCTAC”, the binding signal is 1.01 RPM ratio (pull-down/input).

“GATGATTGTTCTCCCAGCTGATGAATTGCGTGTGTCGAGTAAACAAATTTTCCTAATCTTTCTGTTCAAGCGCCATCTAC”: the binding signal is 1.11 RPM ratio (pull-down/input).

Take “GATGATTGTTCTCCCAGCTGATGAATTGTGTTAGTCGAGTAAACAAATTTTCCTAATCTTTCTGTTCAAGCGCCATCTAC”: the binding signal was 1.58 RPM ratio (pull-down/input).

In the case of “GATGATTGTTCTCCCAGCTGATGAATTAGAACAATCGAGTAAACAAATTTTCCTAATCTTTCTGTTCAAGCGCCATCTAC”, the binding signal is 1.37 RPM ratio (pull-down/input).

For the origin of these results see paper PMC12820563, “FoxP3 forms a head-to-head dimer in vivo and stabilizes its multimerization on adjacent microsatellites”.
